About 14,000 (4.5%) of roughly 310,000 compounds showed an effect of 50% or more. Effects have a minus sign here. Some of the results follow.
target: human ether-à-go-go-related gene (hERG) potassium channel (human, UniProt Q12809); experiment: primary screen, population patch clamp on CHO cells stably expressing hERG
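Note: peak tail current of the secondary pulse compared with the same well before compound.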

Sequence of human ether-à-go-go-related gene (hERG) potassium channel (Q12809 whole entry, looked up): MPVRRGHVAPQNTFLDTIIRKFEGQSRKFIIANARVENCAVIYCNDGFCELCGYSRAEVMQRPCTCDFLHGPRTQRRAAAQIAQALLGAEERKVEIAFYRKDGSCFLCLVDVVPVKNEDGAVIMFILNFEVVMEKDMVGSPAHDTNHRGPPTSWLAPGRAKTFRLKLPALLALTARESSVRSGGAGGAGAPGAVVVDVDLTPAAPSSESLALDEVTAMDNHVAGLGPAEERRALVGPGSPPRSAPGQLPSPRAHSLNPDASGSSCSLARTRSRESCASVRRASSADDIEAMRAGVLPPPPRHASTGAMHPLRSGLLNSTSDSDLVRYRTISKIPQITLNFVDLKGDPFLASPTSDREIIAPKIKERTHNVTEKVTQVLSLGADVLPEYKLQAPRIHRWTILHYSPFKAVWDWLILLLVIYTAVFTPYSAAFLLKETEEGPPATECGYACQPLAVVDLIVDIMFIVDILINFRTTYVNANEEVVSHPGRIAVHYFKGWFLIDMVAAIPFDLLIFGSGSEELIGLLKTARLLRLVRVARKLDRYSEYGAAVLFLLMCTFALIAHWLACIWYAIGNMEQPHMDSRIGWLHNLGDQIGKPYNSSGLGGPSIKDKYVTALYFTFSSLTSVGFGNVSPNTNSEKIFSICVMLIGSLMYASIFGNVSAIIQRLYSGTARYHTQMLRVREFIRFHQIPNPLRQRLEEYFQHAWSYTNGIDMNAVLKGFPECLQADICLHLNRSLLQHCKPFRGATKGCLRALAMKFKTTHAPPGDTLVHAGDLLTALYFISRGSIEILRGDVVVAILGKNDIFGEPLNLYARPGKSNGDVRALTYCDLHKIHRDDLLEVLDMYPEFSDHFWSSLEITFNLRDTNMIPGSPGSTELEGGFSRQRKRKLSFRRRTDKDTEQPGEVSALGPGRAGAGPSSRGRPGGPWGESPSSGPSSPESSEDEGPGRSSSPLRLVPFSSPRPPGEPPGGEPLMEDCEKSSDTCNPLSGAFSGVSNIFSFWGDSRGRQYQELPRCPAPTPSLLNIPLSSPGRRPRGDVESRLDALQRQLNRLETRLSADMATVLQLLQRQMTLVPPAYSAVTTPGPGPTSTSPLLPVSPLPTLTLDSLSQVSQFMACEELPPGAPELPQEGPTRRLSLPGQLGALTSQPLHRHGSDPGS

Compound	hERG current change (%, negative = inhibition) at 10uM
CCOC(=O)CCSc1nc(C)c2ccccc2n1	-15.7%
Cl.O=C(c1ccc(F)cc1)C(CCCCCC(CN1CCOCC1)C(=O)c1ccc(F)cc1)CN1CCOCC1 (centres unmarked)	-86.8%
COc1ccc(N=Cc2c(O)n(-c3cccc(C)n3)c(=O)c3ccccc23)c(OC)c1	3.83%
CCN(CC)CCNC(=O)c1nn(-c2ccc(C)cc2)c(=O)c2c1c1ccccc1n2C	-40.7%
COC(=O)c1cn(NC(=O)Cc2c(F)cccc2Cl)c(=O)c2ccccc12	11.9%
COc1ccc(-c2cc(C(=O)N3CC(C)CC(C)C3)c3ccccc3n2)cc1 (centres unmarked)	5.7%
CN1CCN(C(=O)/C(=C/c2cn(S(=O)(=O)N(C)C)c3ccccc23)NC(=O)c2ccccc2F)CC1	1.31%
O=C(N/N=C/c1c(Cl)[nH]c2ccccc12)c1sc2ccccc2c1Cl	7.49%
N#CC1=C(N)Oc2ccc3ccc(O)cc3c2C1c1cccnc1 (centres unmarked)	6.2%
CCOc1ccc(CN2C(=O)c3ccccc3C2=O)cc1C(=O)NC1CC(C)(C)NC(C)(C)C1	-9.59%
COC(=O)c1cc(NC(=O)C2CC=CCC2C(=O)O)cc(C(=O)OC)c1 (centres unmarked)	12.4%
CCCCN(C)C(=O)c1ccc(S(=O)(=O)N2CCOCC2)cc1	17.3%
CCCCCn1c(S(=O)(=O)O)nc2ccccc21	-0.478%
CNC(=S)Nc1cc(S(=O)(=O)Nc2cc(Cl)ccc2Cl)ccc1N1CCCC1	-12.4%
COc1ccc(CSc2nc3ccccc3[nH]2)cc1	-5.72%
O=C(CSc1nncs1)NC(=O)NC1CCCC1	37.6%
O=C(CN1CCN(S(=O)(=O)N2CCOCC2)CC1)Nc1cc(Cl)ccc1Cl	-55.2%
COc1ccc(NC(=O)N2CCc3ccccc3C2)cc1	5.74%
CC(CCc1ccccc1)NC(=O)CN1CCN(Cc2ccccc2)C1=O (centres unmarked)	-18.2%
CCOC(=O)N1CCN(c2nc(C)cc(C(F)(F)F)n2)CC1	20.1%
CCC(=O)Nc1cc(-c2nn(C)c(=O)c3ccccc23)ccc1OC	-11.4%
COc1cc(/C=C/C(=O)Nc2ccc(C)cc2)cc(OC)c1OC	-2.49%

Compound	hERG current change (%, negative = inhibition) at 10uM
O=[N+]([O-])c1ccc(-c2cn3nc(-c4ccccc4)c(-c4ccccc4)nc3n2)cc1	1.96%
CCn1c(C)nc2cc(C(=O)N/N=C/c3ccc(O)cc3)ccc21	12.8%
COC(=O)c1ccc(NC(=O)COc2ccc(S(=O)(=O)N3CCCCC3)cc2)cc1	-9.57%
CCOC(=O)[C@H]1[C@H]2COc3ccc(OC)cc3[C@@H]2N2C(=O)c3ccc(C)cc3NC(=O)[C@@]12C	-8.9%
COC(CNC(=O)[C@H](CSCc1ccccc1)N1Cc2ccccc2C1=O)OC	-3.49%
O=C(CSCc1ccc(Cl)cc1)N/N=C/c1ccccc1	-13.5%
O=C(NNS(=O)(=O)c1ccccc1[N+](=O)[O-])c1cccc([N+](=O)[O-])c1	7.58%
CCOC(=O)COc1nc(Nc2ccccc2C)nc(N(C)C)n1	1.92%
C=CCOc1ccc(C2=NO[C@@H]3[C@@H]4C[C@@H]([C@H]5C(=O)N(C)C(=O)[C@@H]45)[C@H]23)cc1	-6.16%
O=C(Oc1ccc(-c2csnn2)cc1)c1cccs1	17.1%
COC(=O)C1=CN(c2ccc(F)cc2)C=C(C(=O)OC)C1c1ccc([N+](=O)[O-])cc1	-20.2%
Cc1ccc(CS(=O)(=O)c2nc3c(c(N(C)C)n2)CCCC3)cc1	-20.5%
COc1ccccc1CN(C(=O)Cc1cccs1)C(C(=O)NC1CCCC1)c1ccncc1 (centres unmarked)	-4.43%
CC(=O)C1=C(C)Nc2ncnn2C1c1ccccc1F (centres unmarked)	8.25%
C/C(=N\NC(=O)c1cnccn1)c1ccc([N+](=O)[O-])cc1	5.39%
C=CCC1NS(=O)(=O)OC2CCCCC12 (centres unmarked)	7.26%
COc1ccc(CCNC(=O)CNCCc2ccc(F)cc2)cc1.O=C(O)C(=O)O	-38.1%
CCC(=O)Nc1ccc(Oc2ccc3c(c2)C(=O)NC3=O)cc1	10.7%
Fc1ccc(OCCOCCN2CCNCC2)cc1.O=C(O)C(=O)O	6.98%
O=C(CCC(=O)c1cccs1)NCc1ccncc1	17.2%
CCOC(=O)Cn1cc(-c2ccccc2)nn1	-5.79%
Cc1ccc(-n2[nH]c(C)c(/C=N/N3C(=O)c4cccc5cccc(c45)C3=O)c2=O)cc1	-17%

Reference: publication PMC4336329 (PLoS ONE, 2015)
